Measurements published in PubChem BioAssay AID1345082 (National Center for Advancing Translational Sciences (NCATS), 2018).
Several values for one entry are separate records, joined by “and”; a condition that tells them apart may be missing. Identical values can stand only once. About 4,000 (4.3%) of roughly 94,000 compounds were called active. Inconclusive means that the source gave no clear call. Such entries were picked first, then a sample of the others. Calls follow the shape of the dose curve; as a rule, active = well fitted inhibition curve with a large enough effect; inconclusive = small, poorly fitted or top-dose-only effect; inactive = no such curve, though single readings can be large or run the other way. Potencies beside an inconclusive call are fits to weak or partial responses and may not hold up.

Experiment: Cytotoxic Profiling in NIH 3T3 Cell Line of Diverse Libraries Using Quantitative High-Throughput Screening; also: nearly all actives have a fitted effect of over 55% in size
Conditions: NIH 3T3 viability, CellTiter-Glo ATP luminescence, 48-72 h; activity change, negative = cytotoxicity: at 96.7 µM (top of the series) unless noted; series mostly up to 96.7 µM
Method in brief: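 Viability of NIH 3T3 cells after 48 or 72 hr compound treatment at 37 °C was assessed by CellTiter-Glo, with luminescence imaged following a 10 min room-temperature step.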
% is scaled to controls: 0 for no effect and ±100 for the full control effect; potency is read from the fitted curve at half-maximal effect; tags tell the direction and shape of the fitted curve.

SMILES	Potency	activity change, negative = cytotoxicity	outcome
O=C(c1ccccn1)N1CCN(c2ccc3nnc(-c4ccccc4)n3n2)CC1	inconclusive: 79.4 µM [inhibitor, partial curve, poor fit] and inconclusive: 70.8 µM [inhibitor, single point]	–	–
O=C1[C@H]2CN(Cc3ccc(C(F)(F)F)cc3)C[C@H]2C(=O)N1Cc1ccc2c(c1)OCO2	inconclusive: 50.1 µM [inhibitor, partial curve, poor fit]	–	–
CC(C)(C)OC(=O)NCCCC(=O)N1CCC(n2c(=O)[nH]c3ccccc32)CC1	–	inactive: -29.9%	–
OCc1ccc(CN2C[C@H](O)C[C@H]2c2nc(-c3ccccc3)no2)o1	–	inactive: -14.5% [at 174 µM]	–
CN(C)S(=O)(=O)N1CCc2nn(CC3CC3)c(=O)n2CC1	–	inactive: -1.66%	–
CCc1ccc(N2CC(c3noc(-c4ccsc4)n3)CC2=O)cc1 (configuration not stated)	inconclusive: 70.8 µM [inhibitor, single point]	–	–
CN(C)c1ccc(-c2noc(-c3nc(-c4ccccc4F)no3)n2)cc1	–	–	inactive
COc1ccccc1CNc1ccc2nnc(C)n2n1	inconclusive: 39.8 µM [inhibitor, partial curve, poor fit]	–	–
N#Cc1cccc(CN2C[C@H](O)C[C@H]2c2nc(-c3ccc4c(c3)OCO4)no2)c1	inconclusive: 112 µM [inhibitor, single point]	–	–
O=C(CC1CCCCC1)NC(Cc1ccccc1)C(=O)N1CCN(c2ccccn2)CC1 (configuration not stated)	inconclusive: 70.8 µM [inhibitor, single point]	–	–
Cc1cccc(N(C)C(=O)Cn2c(=O)n(-c3ccccc3)c(=O)c3c2cc(C)n3C)c1	–	inactive: 1.25%	–
Cn1ncc2c(C(=O)NCc3cccnc3)cc(-c3ccc(C(F)(F)F)cc3)nc21	inconclusive: 39.8 µM [inhibitor, partial curve, poor fit]	–	–
COc1ccc(Cc2nnc3ccc(C(=O)NCc4ccc(F)cc4)cn23)cc1	inconclusive: 50.1 µM [inhibitor, partial curve, poor fit]	–	–
COc1ccc2[nH]c3c(c2c1)CCN(C)C31CCN(C(=O)c2ccccc2)CC1	inconclusive: 44.7 µM [inhibitor, partial curve, poor fit]	–	–
COc1cccc(-c2cc3c(=O)n(CCNC(=O)Cc4cccs4)ccn3n2)c1	–	inactive: -27.7%	–
CCn1c(=O)c2c(cc(C)n2C)n(CC(=O)Nc2cc(OC)cc(OC)c2)c1=O	–	–	inactive
O=S(=O)(c1ccccc1)N1CCC(Cc2nncn2-c2ccccc2)CC1	inconclusive: 44.7 µM [inhibitor, partial curve, poor fit]	–	–
Cn1cc(CC(=O)N2CCCc3ncc(C(=O)N4CCCC[C@@H]4c4ccccc4)cc32)c2ccccc21	inconclusive: 50.1 µM [inhibitor, partial curve, poor fit]	–	–
COc1ccccc1CN1Cc2cc(NC(=O)Cc3cccs3)ccc2OC(C)C1=O (configuration not stated)	inconclusive: 35.5 µM [inhibitor, partial curve, poor fit]	–	–
Cc1ccc(Nc2ccnc(N3CCN(C(=O)c4ccc(C)cc4)CC3)n2)cc1	inconclusive: 44.7 µM [inhibitor, partial curve, poor fit]	–	–
COc1ccccc1-c1ccc(C(=O)N2CCC(C(=O)N3CCOCC3)CC2)cc1	–	–	inactive

SMILES	Potency	activity change, negative = cytotoxicity	outcome
COc1cccc(C(=O)NCC2CCCN(C/C(C)=C/c3ccccc3)C2)c1OC (configuration not stated)	inconclusive: 56.2 µM [inhibitor, partial curve, poor fit]	–	–
Cc1noc(C)c1Cn1cc2c3c(cccc31)[C@H](CC(C)C)N[C@H](C(=O)N1CCOCC1)C2	–	inactive: -20.6%	–
O=[S+]([O-])(NCC1CN(Cc2cccc(Cl)c2)CC12CN(c1ccccc1)C2)c1ccccc1 (configuration not stated)	inconclusive: 25.1 µM [inhibitor, full curve]	–	–
O=Cc1ccc(-c2cccc(O)c2)cc1	inconclusive: 126 µM [inhibitor, single point]	–	–
O=C(NCc1ccccc1Cl)c1nc2sccn2c1-c1cccc(C(F)(F)F)c1	inconclusive: 20 µM [inhibitor, full curve, poor fit]	–	–
Cc1noc([C@@H]2CN(Cc3ccccc3OC(C)C)C[C@H]2CO)n1	–	inactive: -16.8%	–
CCC(C)NC(=O)C1CCN(C(=O)c2nnn3c2COC(c2ccc(OC)cc2)C3)CC1 (configuration not stated)	–	–	inactive
CCOC(=O)[C@@H]1[C@@H](OC)C(=O)N(C)C12CCN(C(=O)OCc1ccccc1)CC2	inconclusive: 56.2 µM [inhibitor, partial curve, poor fit]	–	–
C[S+](=O)([O-])NCCn1ccc2cc(OC3CCN(c4ncc(F)cn4)CC3)cnc21	inconclusive: 56.2 µM [inhibitor, partial curve, poor fit]	–	–
C#CCNC(=O)C[C@@H]1c2nc(NC(=O)c3ccc(F)cc3)sc2C[C@@H]2[C@](C)(CO)[C@H](O)CC[C@]21C	inconclusive: 89.1 µM [inhibitor, single point]	–	–
COc1ccc(C(=O)N2CCCC(c3nn(-c4ccccn4)c(=O)[nH]3)C2)cc1 (configuration not stated)	–	–	inactive
O=C1N(c2ccccc2)c2ccccc2C12CCN(Cc1cccnc1)C2 (configuration not stated)	inconclusive: 50.1 µM [inhibitor, partial curve, poor fit]	–	–
CC(=O)N1CCC(Cc2ccc(C(=O)NCc3cc(F)cc(F)c3)cc2)CC1	inconclusive: 39.8 µM [inhibitor, partial curve, poor fit]	–	–
Cc1nc2n(c1C(=O)NCCOc1ccccc1)CCC(Nc1ccc(F)cc1)C2 (configuration not stated)	inconclusive: 63.1 µM [inhibitor, partial curve, poor fit]	–	–
CC(NC(=O)c1ccc(-c2ccc(N3CCCCCC3)nc2)cc1)c1cccnc1 (configuration not stated)	active: 25.1 µM	–	–
O=C1CC(c2ccccc2)N(C(=O)C2CC2)CCCN(C(=O)c2ccc3cc[nH]c3c2)CCN1 (configuration not stated)	–	inactive: -8.84%	–
COc1cc(-c2ccnc3nc(CCC4CCCC4)nn23)cc(OC)c1OC	active: 5.62 µM	–	–
CSc1ccc(-c2cccc(C(=O)NCC(=O)N3CCOCC3)c2)cc1	inconclusive: 39.8 µM [inhibitor, partial curve]	–	–
O=C(CN1C(=O)COc2ccc(C(=O)COc3cccc(F)c3)cc21)NCc1ccc(F)cc1	inconclusive: 44.7 µM [inhibitor, partial curve, poor fit]	–	–
O=C(Cc1ccccc1)N1CCC(Cc2nc(-c3cccnc3)n[nH]2)C1 (configuration not stated)	inconclusive: 20 µM [inhibitor, full curve, poor fit]	–	–
Cn1nc(C(=O)NCc2cccnc2)c2c1CN(C(=O)CC1CCCCC1)C2	–	inactive: -29.2%	–

SMILES	Potency	activity change, negative = cytotoxicity	outcome
CN(C)C(=O)CCc1ccc(CC2CCN(Cc3ccccc3)CC2)cc1	inconclusive: 50.1 µM [inhibitor, partial curve, poor fit]	–	–
CC(C)NC(=O)N1CCC2(CC1)CC(CCOc1ccncc1)CCO2 (configuration not stated)	–	inactive: -30.3%	–
Cc1n[nH]c(C)c1CNC(=O)c1ccc(CC2CCN(S(C)(=O)=O)CC2)cc1	inconclusive: 11.2 µM [inhibitor, partial curve, poor fit]	–	–
CC(C)CN1CCCC(c2nc3ccc(F)cc3c(=O)[nH]2)C1 (configuration not stated)	active: 31.6 µM	–	–
Cc1nn2c(c1-c1ccccc1OCc1ccccc1)N(Cc1ccc(OCC(=O)O)cc1)CCC2	active: 25.1 µM	–	–
CN1C(=O)c2cccn2CC1CNC(=O)c1[nH]nc2c1COc1ccccc1-2 (configuration not stated)	inconclusive: 70.8 µM [inhibitor, single point]	–	–
O=C(c1nc2sccn2c1Br)N1CCC(N2CCCCCC2=O)CC1	–	inactive: -20.6%	–
COCCN(C)Cc1ccc(CC2CCN(C(=O)C3(c4ccc(OC)cc4)CC3)CC2)cc1	inconclusive: 44.7 µM [inhibitor, partial curve, poor fit]	–	–
O=C(NCc1ccccn1)c1ccc2c(c1)CC(=O)N2Cc1ccc(F)cc1	inconclusive: 50.1 µM [inhibitor, single point]	–	–
O=C(c1ccc(Cl)nc1)N1CCC(C(=O)N2CCC(N3Cc4cccn4C3=O)CC2)CC1	–	inactive: -7.22%	–
COc1ccccc1CNC(=O)[C@@H](C)C1CC[C@@]2(C)CC[C@H](NC(=O)c3ccncc3)[C@@H](C)[C@@H]2[C@H]1O (some centres not stated)	inconclusive: 35.5 µM [inhibitor, partial curve]	–	–
CN(Cc1cccn1C)Cc1ccnn1C	inconclusive: 112 µM [inhibitor, single point]	–	–
COc1cccc(CNC(=O)[C@@H]2C[C@@H](O)CN2C2CCN(C(=O)c3cc(C)nn3C)CC2)c1	inconclusive: 79.4 µM [inhibitor, partial curve, poor fit]	–	–
COCC(=O)N[C@H](C)c1onc(-c2cccnc2)c1C(=O)O	–	inactive: -2.69% [at 174 µM]	–
CN1CCC(CC(=O)N2CCC3(CC2)CC(CCOc2ccc(F)cc2)CCO3)CC1 (configuration not stated)	inconclusive: 44.7 µM [inhibitor, partial curve, poor fit]	–	–
CCOc1ccccc1CN1CCC2(CCN(C(=O)c3cccc(OC)c3)CC2)Oc2ccccc21	inconclusive: 50.1 µM [inhibitor, partial curve, poor fit]	–	–
Cc1noc(-c2ccc(C(C)(C)C)cc2)c1C(=O)NCc1ccc(F)cc1F	inconclusive: 22.4 µM [inhibitor, partial curve]	–	–
COc1ccc(C2(C(=O)N3CCCC(Cc4nc(C5CCOCC5)no4)C3)CC2)cc1 (configuration not stated)	inconclusive: 50.1 µM [inhibitor, partial curve, poor fit]	–	–
Cc1cc(CNC(=O)C2CCCCn3nnnc32)c2[nH]c(-c3ccccc3)c(C)c2c1 (configuration not stated)	active: 35.5 µM	–	–
COc1ccc(-c2noc([C@@H]3CCCN3C(=O)c3ccc(F)cc3Cl)n2)cc1	inconclusive: 56.2 µM [inhibitor, partial curve, poor fit]	–	–
